Results from PubChem BioAssay AID588342 (National Center for Advancing Translational Sciences (NCATS), 2011).
“And” between values parts separate entries of the source, which are not always exact repeats. Equal values may be shown once. Out of some 360,000 compounds screened, about 25,000 (6.9%) were called active. The inconclusive results got no clear call from the source; some entries with a clear call stand among them for comparison. Calls follow the shape of the dose curve; as a rule, active = well fitted inhibition curve with a large enough effect; inconclusive = small, poorly fitted or top-dose-only effect; inactive = flat fitted curve, though single readings scatter. A potency beside an inconclusive call is a rough fit, not a confirmed value.

What follows are compounds tested against Luciferin 4-monooxygenase (Photinus pyralis) (UniProt P08659) (assay: qHTS profiling assay for firefly luciferase inhibitor/activator using purifed enzyme and Km concentrations of substrates (counterscreen for miR-21 project)). Details: purified FLuc, luminescence inhibition; series mostly up to 57.5 µM.
Chain of UniProt P08659 (P08659 whole entry, looked up): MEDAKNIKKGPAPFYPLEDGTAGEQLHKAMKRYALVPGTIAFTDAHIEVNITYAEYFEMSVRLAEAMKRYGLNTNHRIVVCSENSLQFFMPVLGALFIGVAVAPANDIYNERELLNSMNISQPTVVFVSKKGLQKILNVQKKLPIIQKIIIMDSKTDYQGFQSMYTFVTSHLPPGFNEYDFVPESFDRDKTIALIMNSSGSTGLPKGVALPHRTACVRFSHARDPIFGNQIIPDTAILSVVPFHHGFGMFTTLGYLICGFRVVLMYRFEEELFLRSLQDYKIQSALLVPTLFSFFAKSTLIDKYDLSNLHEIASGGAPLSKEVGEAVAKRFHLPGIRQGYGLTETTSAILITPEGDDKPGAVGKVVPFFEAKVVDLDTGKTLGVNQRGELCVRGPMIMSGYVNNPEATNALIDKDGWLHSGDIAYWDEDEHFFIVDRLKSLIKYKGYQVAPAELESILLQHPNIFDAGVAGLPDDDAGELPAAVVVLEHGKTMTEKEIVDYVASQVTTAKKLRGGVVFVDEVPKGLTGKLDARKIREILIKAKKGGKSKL
Summary of the method: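 Purified P. pyralis luciferase, 10 nM final, with Km-level 10 uM D-luciferin and 10 uM ATP in 50 mM Tris acetate pH 7.5, 10 mM Mg acetate, 0.01% Tween-20, 0.05% BSA; 6-point qHTS titration about 60 µM downward; luminescence read.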
Also: nearly all actives have a fitted effect of over 55% in size.
Potency is read from the fitted curve at half-maximal effect; tags tell the direction and shape of the fitted curve.

Compound | Potency
CCOc1ccc(/C=C/c2nc(C#N)c(Nc3ccc(OCC)cc3)o2)cc1 | inactive
CCN(CC)c1ccc(/C=N/NC(=O)c2c(Cl)cnn2C)c(O)c1 | inconclusive: 33.8 µM [inhibitor, partial curve, poor fit]
NC(=O)c1sc2nc(-c3ccco3)ccc2c1N | active: 10.7 µM
CC(=O)NNc1ncnc2c1cnn2-c1ccc(C)c(C)c1 | inconclusive: 26.9 µM [inhibitor, single point]
CC(NCC(=O)Nc1ccccc1C(=O)NC1CC1)c1ccco1 (centres undefined) | inactive
O=C(CNC(=O)c1ccccc1)OCc1nnc(-c2ccccc2)o1 | inconclusive: 21.3 µM [inhibitor, partial curve, poor fit]
CCCc1cc(N2CCOCC2)n2ncc(-c3ccccc3)c2n1 | inconclusive: 26.9 µM [inhibitor, single point]
Cc1nnc(SCC(=O)NC23CC4CC(CC(C4)C2)C3)n(N)c1=O | inactive
CCn1c2ccccc2c2cc(/C=N/NC(=O)c3ccc(O)cc3)ccc21 | inconclusive: 16.9 µM [inhibitor, partial curve]
COc1cc(NC(=O)c2nn(-c3ccc(F)cc3)c(=O)n(C)c2=O)cc(OC)c1OC | inactive
O=C1NN(c2cccc(Br)c2)C(=O)/C1=C\c1ccccc1 | inconclusive: 21.3 µM [inhibitor, single point]
CCN(CC)CCNC(=O)c1ccc(NC(=O)c2ccc(Cl)c(S(=O)(=O)Nc3ccccc3OC)c2)cc1 | inactive
COc1ccc(-n2c(C)cc(C(=O)CSc3nn4c(=O)c(C(C)(C)C)nnc4s3)c2C)cc1 | inconclusive: 7.57 µM [inhibitor, full curve]
Cc1sc(/C=C2\C(=O)ON=C2c2ccccc2)cc1Br | inconclusive: 6.01 µM [inhibitor, full curve]
O=C(COCc1cc(-c2cccs2)on1)NCc1cccc(Cl)c1 | inconclusive: 37.9 µM [inhibitor, partial curve, poor fit]
CC(C)CN=c1cc(-c2ccccc2)oc2ccc(Cl)cc12 | inconclusive: 16.9 µM [inhibitor, partial curve]
Cc1cc(C)n2c(Nc3ccc4c(c3)OCCO4)c(-c3ccco3)nc2n1 | inconclusive: 37.9 µM [inhibitor, partial curve, poor fit]
NS(=O)(=O)c1ccc(NC(=S)NNC(=O)c2cccs2)cc1 | inconclusive: 37.9 µM [inhibitor, single point]
COc1ccc(NC(=O)Nc2cccnc2)cc1 | active: 16.9 µM
Cc1cccc(-c2nc(=S)c3c(o2)CCCC3)c1 | active: 3.38 µM
COc1ccc(OC)c(S(=O)(=O)Nc2cccc(-c3ccc(N4CCCCCC4)nn3)c2)c1 | active: 6.01 µM and active: 16.9 µM
COc1ccc(CCN2CC(C(=O)Nc3cc(S(C)(=O)=O)ccc3Cl)CC2=O)cc1OC (centres undefined) | inconclusive: 23.9 µM [inhibitor, partial curve, poor fit]
CCc1ccc(Oc2cc(Cl)nc(N)n2)cc1 | inconclusive: 8.49 µM [inhibitor, partial curve, poor fit]
OC(COc1ccc2ccccc2c1)CN1CCCC1 (centres undefined) | inconclusive: 33.8 µM [inhibitor, partial curve, poor fit]
CC(=O)Nc1ccccc1NC(=O)c1ccc(C)cc1C | inactive

Compound | Potency
COC(=O)/C=c1/sc2nc3ccccc3n2c1=O | inconclusive: 15.1 µM [inhibitor, partial curve]
Cc1nnsc1S(=O)c1ccccc1Cl (centres undefined) | inactive
Cn1cc(C(=O)C(=O)NC2CCCCC2)c2ccccc21 | inconclusive: 26.9 µM [inhibitor, single point]
CCOc1cc(/C=N/Nc2cc(C)nc3ccc(C)cc23)ccc1O | inconclusive: 16.9 µM [inhibitor, partial curve, poor fit]
O=C(NC1=NCCS1)c1ccc(OCC2CCCO2)cc1 (centres undefined) | inconclusive: 9.53 µM [inhibitor, partial curve, poor fit]
O=C(COc1ccccc1)Nc1ccc(Cl)cn1 | active: 19 µM
COc1ccc(CN(C(=O)c2ccc(C)cc2)c2cccc(N)c2)cc1 | inactive
CC(C)c1ccc(/C=C/C(=O)N2CCOCC2)cc1 | active: 9.53 µM
O=C(NCCc1ccc(Cl)cc1)c1nc(-c2cccc(F)c2)n2c1CCCCC2 | inactive
CC(C)NC(=O)NC(=O)COC(=O)c1c2c(nc3ccccc13)CCC2 | inactive
COc1ccc2nc(SCC(=O)N3CC(=O)Nc4ccccc43)c(C#N)cc2c1 | inconclusive: 30.1 µM [inhibitor, single point]
CC(=O)c1cccc(NC(=O)c2ccc(CN3CCc4ccccc4C3)cc2)c1 | inconclusive: 26.9 µM [inhibitor, single point]
O=C(Nc1nccs1)C(=O)c1c[nH]c2ccccc12 | active: 7.57 µM
COc1cccc(/C=N/N=C(\N)c2nonc2N)c1O | inconclusive: 3.38 µM [inhibitor, partial curve, poor fit]
COc1ccccc1/C=C/C(=O)NC1CC2CCC1C2 (centres undefined) | inconclusive: 19 µM [inhibitor, partial curve]
Cc1cc2n(n1)CCC(=O)N2Cc1ccc(C(=O)Nc2ccc(Br)c(C)c2)cc1 | inconclusive: 10.7 µM [inhibitor, partial curve]
O=C(O)c1ccccc1Nc1ccnc(Cl)n1 | inconclusive: 30.1 µM [inhibitor, single point]
N#CC(C(=O)c1ccco1)c1ccccn1 (centres undefined) | inconclusive: 16.9 µM [inhibitor, partial curve]
Cc1ccc(NC(=O)CN2C(=O)c3ccccc3Sc3ccc(C(=O)N4CCCC4)cc32)cc1 | inactive
O=C(Nc1cc(Cl)ccc1Cl)c1cc(S(=O)(=O)N2CCCc3ccccc32)ccc1F | inconclusive: 37.9 µM [inhibitor, partial curve, poor fit]
COc1ccc2c(c1)CCC/C2=N\NC(=O)c1ccoc1C | inconclusive: 19 µM [inhibitor, partial curve, poor fit]
Fc1ccc(OCc2nc(-c3cccs3)no2)cc1 | active: 10.7 µM
CC1=CC(=O)C(C(C)C)=CC1=NC(=O)c1ccc(C)cc1 | inconclusive: 10.7 µM [inhibitor, partial curve]
Cc1sc2ncnc(N3CCC(C(=O)Nc4ccc(Br)cc4Br)CC3)c2c1C | inactive
COc1ccc(CCN(C)C(=O)CCc2nnc(-c3ccccc3)o2)cc1OC | active: 19 µM

Compound | Potency
O=C1/C(=C/c2ccc(O)cc2)CCc2ccc([N+](=O)[O-])cc21 | inactive
Cc1ccccc1Cn1cc(NC(=O)c2cc(C3CC3)on2)cn1 | active: 19 µM
COc1ccc(NC(=O)C(=O)NCC(c2cccnc2)N2CCc3ccccc3C2)cc1 (centres undefined) | active: 0.379 µM
CCC(c1c(C)n(C)n(-c2ccccc2)c1=O)c1c(C)n(C)n(-c2ccccc2)c1=O | inconclusive: 23.9 µM [inhibitor, partial curve, poor fit]
COc1ccc(C(=O)Nc2ccc3c(c2)nc(CCNC(C)=O)n3C)cc1 | active: 12 µM
Cc1nc(NS(=O)(=O)c2ccccc2)sc1C(=O)NN | inconclusive: 9.53 µM [inhibitor, partial curve, poor fit]
CCCCNc1c(-c2ccc(SC(C)CC)cc2)nc2ccccn12 (centres undefined) | active: 1.35 µM
CCOc1ccc(NC(=O)Cc2ccc(-n3c(C)nc4cccnc43)cc2)cc1 | inactive
COc1cccc(NC(=O)c2ccc(OC(F)(F)F)cc2)c1 | active: 2.39 µM
O=C(c1ccco1)N1CCC(c2ccccc2)C1 (centres undefined) | inconclusive: 21.3 µM [inhibitor, single point]
CC(=O)N1CCC(N(Cc2ccco2)C(=O)Nc2ccc(Br)cc2F)CC1 | inactive
CCc1nc(Nc2ccc(N3CCN(C(C)=O)CC3)cc2)c2oc3ccccc3c2n1 | inconclusive: 21.3 µM [inhibitor, single point]
Cc1cc(-c2n[nH]c(=S)o2)c(C)n1-c1ccccc1 | active: 3.01 µM
Cc1ccc(/C=N/NC(=O)c2ccc(C(=O)N/N=C/c3ccc(C)s3)o2)s1 | inconclusive: 1.51 µM [inhibitor, full curve]
Cc1ccc(NC(=O)Nc2ccc3c(c2)CCC3)cc1 | inconclusive: 3.01 µM [inhibitor, full curve]
CC(=O)NN1C(=O)c2ccccc2NC1c1ccc(N(C)C)cc1 (centres undefined) | inconclusive: 30.1 µM [inhibitor, partial curve, poor fit]
CC(C)c1c(C(=O)N/N=C/c2ccncc2)nnn1-c1nonc1N | inconclusive: 37.9 µM [inhibitor, single point]
Cc1cc(C(=O)NNC(=O)/C=C/c2ccc(F)cc2)c(C)o1 | inactive
Cc1ccc(-c2nn(-c3ccc(F)cc3)cc2C(=O)NCC2CCCO2)cc1 (centres undefined) | active: 10.7 µM
Cc1cc(C(=O)N/N=C/c2cn[nH]c2-c2ccccc2)cs1 | inconclusive: 19 µM [inhibitor, partial curve, poor fit]
Clc1ccccc1/C=N/N1CCN(Cc2ccccc2)CC1 | inconclusive: 16.9 µM [inhibitor, partial curve]
C=C(C)CNC(=S)NN=C1c2ccccc2-c2ccccc21 | inconclusive: 13.5 µM [inhibitor, partial curve, poor fit]
COc1ccc2c(c1)OC/C(=C/c1cccs1)C2=O | active: 0.426 µM
O=C(N/N=C/c1cccs1)c1ccc2ncccc2c1 | inconclusive: 37.9 µM [inhibitor, single point]
